25 test systems from the supplement of paper PMC6657886 can be followed below.

MIC of clinical N. gonorrhoeae isolates (2015-2017) by agar dilution on GC agar with 1% IsoVitaleX (ranges not stated); higher = less susceptible. No active / inactive call per row; the paper counts benzylpenicillin above 1 and ceftriaxone above 0.125 mg/L as resistant (EUCAST). The method is stated for benzylpenicillin and ceftriaxone and assumed for the other drugs. '<=' is inferred from pile-ups at the end values. Isolates are numbered anew.

Holding throughout (assay): Agar dilution on enriched GC agar; resistance determinants by microarray.
A general note: Agar dilution tests growth on a series of plates holding different concentrations.

Compound in assay [1]: CO/N=C(\C(=O)N[C@@H]1C(=O)N2C(C(=O)O)=C(CSc3nc(=O)c(O)nn3C)CS[C@H]12)c1csc(N)n1 [ceftriaxone]
Compound in assay [2]: CC[C@H]1OC(=O)[C@H](C)[C@@H](O[C@H]2C[C@@](C)(OC)[C@@H](O)[C@H](C)O2)[C@H](C)[C@@H](O[C@@H]2O[C@H](C)C[C@H](N(C)C)[C@H]2O)[C@](C)(O)C[C@@H](C)CN(C)[C@H](C)[C@@H](O)[C@]1(C)O [azithromycin]
Compound in assay [3]: CN(C)[C@@H]1C(O)=C(C(N)=O)C(=O)[C@@]2(O)C(O)=C3C(=O)c4c(O)cccc4[C@@](C)(O)[C@H]3C[C@@H]12 [tetracycline]
Compound in assay [4]: CN[C@@H]1[C@H](O)[C@H](NC)[C@H]2O[C@@]3(O)C(=O)C[C@@H](C)O[C@H]3O[C@@H]2[C@H]1O [spectinomycin]
Compound in assay [5]: CC1(C)S[C@@H]2[C@H](NC(=O)Cc3ccccc3)C(=O)N2[C@H]1C(=O)O [benzylpenicillin]

For “Neisseria gonorrhoeae isolate 363 (blaTEM plasmid: no, gyrA: wild type, mtrR promoter: wild type, parC: wild type, penA: wild type, ponA: wild type, porB: wild type, rpsJ: wild type, tetM plasmid: no)”, the MIC – broadly, the smallest concentration in the dilution series that meets the test's criterion for growth inhibition – in assay [1] was at most 0.002 µg/mL; in assay [2], 0.25 µg/mL; in assay [3], 0.25 µg/mL; in assay [4] it was 32 µg/mL; in assay [5], at most 0.015 µg/mL.

Take “Neisseria gonorrhoeae isolate 107 (blaTEM plasmid: no, gyrA: wild type, mtrR promoter: wild type, parC: wild type, penA: wild type, ponA: wild type, porB: wild type, rpsJ: wild type, tetM plasmid: no)”: the MIC in assay [1] was at most 0.002 µg/mL; in assay [2], 0.06 µg/mL; in assay [3], 0.25 µg/mL; in assay [4], 16 µg/mL; in assay [5], 0.06 µg/mL.

In the case of “Neisseria gonorrhoeae isolate 391 (blaTEM plasmid: no, gyrA: Phe91, Ala 95, mtrR promoter: wild type, parC: wild type, penA: ins345Asp, ponA: Pro421, porB: wild type, rpsJ: Met57, tetM plasmid: no)”, the MIC was 0.004 µg/mL in assay [1]; 0.06 µg/mL in assay [2]; 2 µg/mL in assay [3]; 16 µg/mL in assay [4]; 0.5 µg/mL in assay [5].

Turning to “Neisseria gonorrhoeae isolate 411 (blaTEM plasmid: no, gyrA: wild type, mtrR promoter: wild type, parC: wild type, penA: ins345Asp, ponA: wild type, porB: wild type, rpsJ: wild type, tetM plasmid: no)”, the minimum inhibitory concentration (MIC) in assay [1] worked out at 0.008 µg/mL; in assay [2], 0.06 µg/mL; in assay [3], 0.25 µg/mL; in assay [4], 16 µg/mL; in assay [5] it was 0.06 µg/mL.

Take “Neisseria gonorrhoeae isolate 40 (blaTEM plasmid: no, gyrA: wild type, mtrR promoter: wild type, parC: wild type, penA: wild type, ponA: wild type, porB: wild type, rpsJ: wild type, tetM plasmid: no)”: the MIC in assay [1] is at most 0.002 µg/mL; in assay [2], 0.03 µg/mL; in assay [3] it was 0.06 µg/mL; in assay [4], 4 µg/mL; in assay [5] it was at most 0.015 µg/mL.

Consider “Neisseria gonorrhoeae isolate 450 (blaTEM plasmid: no, gyrA: wild type, mtrR promoter: wild type, parC: wild type, penA: wild type, ponA: wild type, porB: wild type, rpsJ: wild type, tetM plasmid: no)”, for which the MIC was at most 0.002 µg/mL in assay [1]; 0.25 µg/mL in assay [2]; 0.5 µg/mL in assay [3]; 16 µg/mL in assay [4]; at most 0.015 µg/mL in assay [5].

With “Neisseria gonorrhoeae isolate 135 (blaTEM plasmid: no, gyrA: Phe91, Asn95, mtrR promoter: -35delA, parC: Ser87, Gly91, penA: ins345Asp, ponA: Pro421, porB: wild type, rpsJ: Met57, tetM plasmid: no)”, the MIC is at most 0.002 µg/mL in assay [1]; 0.06 µg/mL in assay [2]; 0.25 µg/mL in assay [3]; 16 µg/mL in assay [4]; 0.25 µg/mL in assay [5].

For “Neisseria gonorrhoeae isolate 67 (blaTEM plasmid: no, gyrA: wild type, mtrR promoter: wild type, parC: wild type, penA: ins345Asp, ponA: wild type, porB: wild type, rpsJ: wild type, tetM plasmid: no)”, the MIC is 0.015 µg/mL in assay [1]; 0.008 µg/mL in assay [2]; 0.06 µg/mL in assay [3]; 32 µg/mL in assay [4]; 0.06 µg/mL in assay [5].

For the test system “Neisseria gonorrhoeae isolate 88 (blaTEM plasmid: no, gyrA: Phe91, Asn95, mtrR promoter: -35delA, parC: Arg87, Glu91, penA: wild type, ponA: Pro421, porB: wild type, rpsJ: Met57, tetM plasmid: no)”, the MIC is 0.004 µg/mL in assay [1]; 0.25 µg/mL in assay [2]; 1 µg/mL in assay [3]; 32 µg/mL in assay [4]; 1 µg/mL in assay [5].

Regarding “Neisseria gonorrhoeae isolate 98 (blaTEM plasmid: no, gyrA: wild type, mtrR promoter: wild type, parC: wild type, penA: wild type, ponA: wild type, porB: wild type, rpsJ: wild type, tetM plasmid: no)”, the MIC in assay [1] was at most 0.002 µg/mL; in assay [2] it was 0.12 µg/mL; in assay [3], 0.06 µg/mL; in assay [4], 8 µg/mL; in assay [5], at most 0.015 µg/mL.

For the test system “Neisseria gonorrhoeae isolate 131 (blaTEM plasmid: no, gyrA: Phe91, Gly95, mtrR promoter: wild type, parC: Arg87, Glu91, penA: ins345Asp, ponA: Pro421, porB: Asp120, Ala121, rpsJ: Met57, tetM plasmid: no)”, the MIC in assay [1] was determined as 0.004 µg/mL; in assay [2], 0.015 µg/mL; in assay [3], 0.5 µg/mL; in assay [4] it was 32 µg/mL; in assay [5], 0.25 µg/mL.

“Neisseria gonorrhoeae isolate 497 (blaTEM plasmid: no, gyrA: wild type, mtrR promoter: wild type, parC: wild type, penA: wild type, ponA: wild type, porB: wild type, rpsJ: wild type, tetM plasmid: no)”: the MIC is at most 0.002 µg/mL in assay [1]; 0.06 µg/mL in assay [2]; 0.12 µg/mL in assay [3]; 16 µg/mL in assay [4]; at most 0.015 µg/mL in assay [5].

On to “Neisseria gonorrhoeae isolate 373 (blaTEM plasmid: no, gyrA: wild type, mtrR promoter: wild type, parC: wild type, penA: wild type, ponA: wild type, porB: wild type, rpsJ: wild type, tetM plasmid: no)”, for which the MIC was at most 0.002 µg/mL in assay [1]; 0.25 µg/mL in assay [2]; 1 µg/mL in assay [3]; 16 µg/mL in assay [4]; 0.06 µg/mL in assay [5].

On to “Neisseria gonorrhoeae isolate 63 (blaTEM plasmid: no, gyrA: wild type, mtrR promoter: wild type, parC: wild type, penA: wild type, ponA: wild type, porB: wild type, rpsJ: wild type, tetM plasmid: no)”, for which the MIC is at most 0.002 µg/mL in assay [1]; 0.12 µg/mL in assay [2]; 1 µg/mL in assay [3]; 16 µg/mL in assay [4]; 0.12 µg/mL in assay [5].

As to “Neisseria gonorrhoeae isolate 6 (blaTEM plasmid: no, gyrA: Phe91, Asn95, mtrR promoter: -35delA, parC: Ser87, Gly91, penA: ins345Asp, ponA: Pro421, porB: wild type, rpsJ: Met57, tetM plasmid: no)”, the MIC in assay [1] was at most 0.002 µg/mL; in assay [2] it was 0.03 µg/mL; in assay [3], 0.25 µg/mL; in assay [4] it was 16 µg/mL; in assay [5] it was 0.03 µg/mL.

For the test system “Neisseria gonorrhoeae isolate 459 (blaTEM plasmid: no, gyrA: wild type, mtrR promoter: wild type, parC: wild type, penA: ins345Asp, ponA: wild type, porB: wild type, rpsJ: wild type, tetM plasmid: no)”, the MIC was at most 0.002 µg/mL in assay [1]; 0.12 µg/mL in assay [2]; 0.12 µg/mL in assay [3]; 16 µg/mL in assay [4]; 0.12 µg/mL in assay [5].

Take “Neisseria gonorrhoeae isolate 272 (blaTEM plasmid: no, gyrA: Phe91, Gly95, mtrR promoter: -35delA, parC: Arg87, Glu91, penA: ins345Asp, ponA: Pro421, porB: wild type, rpsJ: Met57, tetM plasmid: no)”: the MIC in assay [1] amounted to 0.06 µg/mL; in assay [2], 0.03 µg/mL; in assay [3], 2 µg/mL; in assay [4], 32 µg/mL; in assay [5], 0.5 µg/mL.

As for “Neisseria gonorrhoeae isolate 294 (blaTEM plasmid: no, gyrA: wild type, mtrR promoter: wild type, parC: wild type, penA: ins345Asp, ponA: Pro421, porB: wild type, rpsJ: Met57, tetM plasmid: no)”, the MIC is at most 0.002 µg/mL in assay [1]; 0.12 µg/mL in assay [2]; 0.5 µg/mL in assay [3]; 8 µg/mL in assay [4]; 0.25 µg/mL in assay [5].

As for “Neisseria gonorrhoeae isolate 341 (blaTEM plasmid: no, gyrA: wild type, mtrR promoter: wild type, parC: wild type, penA: ins345Asp, ponA: Pro421, porB: wild type, rpsJ: wild type, tetM plasmid: no)”, the MIC in assay [1] was at most 0.002 µg/mL; in assay [2] it was 0.06 µg/mL; in assay [3], 0.12 µg/mL; in assay [4], 8 µg/mL; in assay [5], 0.03 µg/mL.

As for “Neisseria gonorrhoeae isolate 205 (blaTEM plasmid: no, gyrA: Phe91, Gly95, mtrR promoter: wild type, parC: Arg87, Glu91, penA: ins345Asp, ponA: Pro421, porB: wild type, rpsJ: Met57, tetM plasmid: no)”, the MIC in assay [1] was at most 0.002 µg/mL; in assay [2], 0.03 µg/mL; in assay [3] it was 0.25 µg/mL; in assay [4] it was 8 µg/mL; in assay [5], 0.03 µg/mL.

In the case of “Neisseria gonorrhoeae isolate 18 (blaTEM plasmid: no, gyrA: wild type, mtrR promoter: wild type, parC: wild type, penA: ins345Asp, ponA: wild type, porB: Lys120, Asn121, rpsJ: Met57, tetM plasmid: no)”, the MIC in assay [1] is 0.004 µg/mL; in assay [2] it was 0.5 µg/mL; in assay [3] it was 4 µg/mL; in assay [4] it was 16 µg/mL; in assay [5], 0.5 µg/mL.

As for “Neisseria gonorrhoeae isolate 409 (blaTEM plasmid: no, gyrA: Thr91, Gly95, mtrR promoter: wild type, parC: wild type, penA: wild type, ponA: wild type, porB: Lys120, Asn121, rpsJ: Met57, tetM plasmid: no)”, the MIC was at most 0.002 µg/mL in assay [1]; 0.5 µg/mL in assay [2]; 0.5 µg/mL in assay [3]; 16 µg/mL in assay [4]; 0.5 µg/mL in assay [5].

For the test system “Neisseria gonorrhoeae isolate 231 (blaTEM plasmid: no, gyrA: Phe91, Asn95, mtrR promoter: -35delA, parC: Arg87, Glu91, penA: ins345Asp, ponA: Pro421, porB: wild type, rpsJ: Met57, tetM plasmid: no)”, the MIC in assay [1] stood at 0.008 µg/mL; in assay [2], 0.5 µg/mL; in assay [3], 1 µg/mL; in assay [4], 16 µg/mL; in assay [5] it was 0.5 µg/mL.

In the case of “Neisseria gonorrhoeae isolate 232 (blaTEM plasmid: no, gyrA: wild type, mtrR promoter: wild type, parC: wild type, penA: ins345Asp, ponA: wild type, porB: wild type, rpsJ: wild type, tetM plasmid: no)”, the MIC came to 0.004 µg/mL in assay [1]; 0.12 µg/mL in assay [2]; 0.5 µg/mL in assay [3]; 32 µg/mL in assay [4]; 0.03 µg/mL in assay [5].

Consider “Neisseria gonorrhoeae isolate 322 (blaTEM plasmid: no, gyrA: wild type, mtrR promoter: wild type, parC: wild type, penA: wild type, ponA: wild type, porB: wild type, rpsJ: wild type, tetM plasmid: no)”, for which the MIC in assay [1] is at most 0.002 µg/mL; in assay [2], 0.12 µg/mL; in assay [3] it was 0.12 µg/mL; in assay [4] it was 16 µg/mL; in assay [5], at most 0.015 µg/mL.
